{"source": "paper PMC4336329", "about": "(PLoS ONE, 2015)", "note": "Among all 310,000 compounds or so, about 14,000 (4.5%) showed an effect of 50% or more. The effect is printed as a negative number. The list shows a part of the results.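 Also: peak tail current of the secondary pulse compared with the same well before compound.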"}
{"target": "human ether-à-go-go-related gene (hERG) potassium channel (human, UniProt Q12809)", "sequence (Q12809 whole entry, looked up)": "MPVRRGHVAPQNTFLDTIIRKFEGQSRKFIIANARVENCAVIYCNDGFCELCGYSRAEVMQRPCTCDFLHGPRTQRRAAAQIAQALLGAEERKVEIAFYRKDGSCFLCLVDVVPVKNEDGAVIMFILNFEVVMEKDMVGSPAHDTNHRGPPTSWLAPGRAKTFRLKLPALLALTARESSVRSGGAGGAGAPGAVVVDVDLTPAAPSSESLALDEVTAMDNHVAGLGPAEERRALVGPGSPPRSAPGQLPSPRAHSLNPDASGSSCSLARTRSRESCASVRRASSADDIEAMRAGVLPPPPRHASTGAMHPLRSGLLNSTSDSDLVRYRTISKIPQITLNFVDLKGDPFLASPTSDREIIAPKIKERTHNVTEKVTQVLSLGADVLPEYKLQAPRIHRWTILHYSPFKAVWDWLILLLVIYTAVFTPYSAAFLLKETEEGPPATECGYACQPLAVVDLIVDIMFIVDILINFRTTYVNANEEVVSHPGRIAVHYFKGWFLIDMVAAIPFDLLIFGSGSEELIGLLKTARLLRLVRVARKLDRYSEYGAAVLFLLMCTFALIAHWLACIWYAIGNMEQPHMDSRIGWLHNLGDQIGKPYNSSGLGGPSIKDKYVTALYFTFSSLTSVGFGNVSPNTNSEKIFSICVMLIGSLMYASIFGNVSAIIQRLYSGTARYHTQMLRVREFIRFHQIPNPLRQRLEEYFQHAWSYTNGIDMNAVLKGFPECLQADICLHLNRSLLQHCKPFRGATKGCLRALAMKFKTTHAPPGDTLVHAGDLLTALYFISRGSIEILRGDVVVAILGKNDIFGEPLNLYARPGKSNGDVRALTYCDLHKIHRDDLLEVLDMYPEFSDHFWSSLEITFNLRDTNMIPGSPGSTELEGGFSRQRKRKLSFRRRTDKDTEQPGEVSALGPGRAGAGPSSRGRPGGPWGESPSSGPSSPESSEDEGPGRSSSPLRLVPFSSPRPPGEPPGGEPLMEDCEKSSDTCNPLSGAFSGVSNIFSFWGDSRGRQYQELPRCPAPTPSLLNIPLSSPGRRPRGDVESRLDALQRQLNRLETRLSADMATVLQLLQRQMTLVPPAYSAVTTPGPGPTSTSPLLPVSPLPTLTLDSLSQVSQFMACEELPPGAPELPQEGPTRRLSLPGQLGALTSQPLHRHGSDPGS", "experiment": "primary screen, population patch clamp on CHO cells stably expressing hERG", "units": {"hERG current change (%, negative = inhibition) at 10uM": "%"}}
{"smiles": "CCOC(=O)C1(Cc2cccc(Cl)c2)CCCN(C(=O)c2c(CC)noc2C)C1", "note": "(centres unmarked)", "hERG current change (%, negative = inhibition) at 10uM": -16.2}
{"smiles": "COc1ccc(C(C(=O)NC2CCCC2)N(CCC(C)C)C(=O)CCC(=O)Nc2cc(C)on2)cc1", "note": "(centres unmarked)", "hERG current change (%, negative = inhibition) at 10uM": -15.9}
{"smiles": "COc1ccc(NC(=O)/C=C/c2cc(Br)ccc2OC)cc1", "hERG current change (%, negative = inhibition) at 10uM": 20}
{"smiles": "Cc1onc(-c2ccccc2)c1C(=O)Nc1nnc(CC(C)(C)C)s1", "hERG current change (%, negative = inhibition) at 10uM": 10}
{"smiles": "CCN(CC)C(=O)CSc1nc(N)c(-c2ccccc2)c(=O)[nH]1", "hERG current change (%, negative = inhibition) at 10uM": 8.53}
{"smiles": "CS(=O)(=O)N(CC(=O)NCC1CCCO1)c1cc(Cl)ccc1Cl", "note": "(centres unmarked)", "hERG current change (%, negative = inhibition) at 10uM": 9.81}
{"smiles": "O=C(CCC(=O)OCCCC(F)(F)C(F)(F)F)Nc1ccccc1", "hERG current change (%, negative = inhibition) at 10uM": 13.5}
{"smiles": "Cc1[nH]n(-c2ccc([N+](=O)[O-])cc2)c(=O)c1C=NCCc1c(C)[nH]c2ccccc12", "hERG current change (%, negative = inhibition) at 10uM": 1.38}
{"smiles": "COc1ccc(C(=O)NC(=S)NNC(=O)c2ccc(O)cc2)cc1[N+](=O)[O-]", "hERG current change (%, negative = inhibition) at 10uM": 22.2}
{"smiles": "NS(=O)(=O)c1ccc(CCNC(=O)CCNS(=O)(=O)c2ccccc2C(F)(F)F)cc1", "hERG current change (%, negative = inhibition) at 10uM": 9.03}
{"smiles": "CC12CCC(C(=O)Nc3cccc(Cl)c3)(C(Br)C1=O)C2(C)C", "note": "(centres unmarked)", "hERG current change (%, negative = inhibition) at 10uM": -0.0939}
{"smiles": "CC(O)C1CCC2C3CC[C@H]4CC(O)CCC4(C)C3CC3(OCCO3)C12C", "note": "(some centres unmarked)", "hERG current change (%, negative = inhibition) at 10uM": -2.52}
{"smiles": "O=C(NCCSCc1ccco1)Nc1cccc(Cl)c1", "hERG current change (%, negative = inhibition) at 10uM": -7.92}
{"smiles": "CCC(C)[C@H](NC(=O)NC1CCCc2ccccc21)C(=O)OC", "note": "(some centres unmarked)", "hERG current change (%, negative = inhibition) at 10uM": 5.19}
{"smiles": "Cc1ccc(NC(=O)C[n+]2cc(-c3ccccc3)n3c2CCC3)cc1.[Cl-]", "hERG current change (%, negative = inhibition) at 10uM": -15.2}
{"smiles": "CCOc1cc2c(cc1OCC)C(c1ccc(F)cc1)NCC2", "note": "(centres unmarked)", "hERG current change (%, negative = inhibition) at 10uM": -10}
{"smiles": "CN(CC(=O)Nc1ccccc1Br)C(=O)CN(C)C1CCCCC1", "hERG current change (%, negative = inhibition) at 10uM": 7.12}
{"smiles": "COc1ccccc1NS(=O)(=O)c1ccc(C)c(C(=O)NCC(c2ccco2)N(C)C)c1", "note": "(centres unmarked)", "hERG current change (%, negative = inhibition) at 10uM": -4.16}
{"smiles": "C=CCSc1nnc(NC(=O)CCN2C(=O)C3CC=CCC3C2=O)s1", "note": "(centres unmarked)", "hERG current change (%, negative = inhibition) at 10uM": -22.8}
{"smiles": "COc1ccc(CCNC(=O)CSc2nnc(CNC(=O)c3ccccc3F)o2)cc1OC", "hERG current change (%, negative = inhibition) at 10uM": 7.62}
{"smiles": "C#CCOCCOCCOCCNc1nc(N2CCN(C(=O)CCCCCCCCCCNC(=O)Cn3cc(CCCCCN)nn3)CC2)nc(N2CCN(C(=O)CCCCCCCCCCNC(=O)[C@@H]([C@H](C)O)n3cc(C)nn3)CC2)n1", "hERG current change (%, negative = inhibition) at 10uM": -22.5}
{"smiles": "CCn1c(=O)c2ccccc2n(CC(=O)NC2CCCCC2)c1=O", "hERG current change (%, negative = inhibition) at 10uM": 12.7}
{"smiles": "CC(C)Oc1ccc(CNCCC2(C(C)C)CCOC(C)(C)C2)cc1", "note": "(centres unmarked)", "hERG current change (%, negative = inhibition) at 10uM": -45.4}
{"smiles": "O=C(c1ccccc1)N(Cc1ccc2c(c1)OCO2)Cc1nc2ccccc2c(=O)[nH]1", "hERG current change (%, negative = inhibition) at 10uM": -15.4}
{"smiles": "CCN(CC)CCNC(=O)c1cccc(NC(=O)C(=O)c2cc(Br)ccc2NC(C)=O)c1", "hERG current change (%, negative = inhibition) at 10uM": -5.49}
{"smiles": "O=c1c2ccccc2ncn1Cc1ccc2c(c1)OCO2", "hERG current change (%, negative = inhibition) at 10uM": -2.63}
{"smiles": "Cc1ccc(N(C(=O)Cn2nnc(-c3ccccc3F)n2)C(C(=O)NC2CCCC2)c2ccncc2)cc1", "note": "(centres unmarked)", "hERG current change (%, negative = inhibition) at 10uM": 5.87}
{"smiles": "Cc1cc2cc(CNC(=O)c3ccc(S(=O)(=O)N4CCCC4)cc3)ccc2n1C", "hERG current change (%, negative = inhibition) at 10uM": 12.1}
{"smiles": "O=C(N/N=C/c1ccc(N2CCCC2)c([N+](=O)[O-])c1)c1cccnc1", "hERG current change (%, negative = inhibition) at 10uM": -15.5}
{"smiles": "CC(C)CN(C(=O)CCC(=O)OCC(=O)NCCc1ccccc1)c1c(N)n(CC(C)C)c(=O)[nH]c1=O", "hERG current change (%, negative = inhibition) at 10uM": -9.28}
{"smiles": "CCOC(=O)c1c(NC(=O)CSc2nnc(C)c(=O)[nH]2)sc2c1CCC2", "hERG current change (%, negative = inhibition) at 10uM": -2.6}
{"smiles": "Cc1[nH]c(=O)[nH]c(=O)c1S(=O)(=O)N1CCN(c2ccccc2)CC1", "hERG current change (%, negative = inhibition) at 10uM": 19}
{"smiles": "COc1cc(OC)cc(C(=O)OCC(=O)NCCCc2ccccc2)c1", "hERG current change (%, negative = inhibition) at 10uM": 12.2}
{"smiles": "CCOC(=O)N/N=C/C=C/c1ccccc1[N+](=O)[O-]", "hERG current change (%, negative = inhibition) at 10uM": -4.87}
{"smiles": "CCOc1ccc(S(=O)(=O)N2CCC(C(=O)NCC3CCCO3)CC2)cc1C", "note": "(centres unmarked)", "hERG current change (%, negative = inhibition) at 10uM": 0.744}
{"smiles": "C=CCNc1nc(NCc2ccccc2)nc(OCC)n1", "hERG current change (%, negative = inhibition) at 10uM": -2.73}
{"smiles": "Cn1cc(-c2nnc(-c3ccccc3)o2)c2ccccc21", "hERG current change (%, negative = inhibition) at 10uM": 14}
{"smiles": "N/C(=N\\c1nc(CSc2nnnn2-c2ccccc2)cc(=O)[nH]1)Nc1ccccc1", "hERG current change (%, negative = inhibition) at 10uM": 6.26}
{"smiles": "COC(=O)CN1C(=O)COc2ccc(S(=O)(=O)N3CCCCCC3)cc21", "hERG current change (%, negative = inhibition) at 10uM": -7.44}
{"smiles": "COc1ccccc1/C=C(/NC(=O)c1ccccc1)C(=O)NCCN1CCOCC1", "hERG current change (%, negative = inhibition) at 10uM": 15.5}
{"smiles": "Cc1ccc(C(=O)NC(=S)Nn2cnnc2)cc1", "hERG current change (%, negative = inhibition) at 10uM": 16.3}
{"smiles": "CCCCc1ccc(N=N/C(C(=O)Nc2ccccc2OC)=C(/C)O)cc1", "hERG current change (%, negative = inhibition) at 10uM": -8.51}
{"smiles": "O=C(Nc1ccccc1)c1ccc(=O)n(Cc2ccc(F)c(F)c2)c1", "hERG current change (%, negative = inhibition) at 10uM": -8.35}
{"smiles": "COC(=O)[C@@]12CCCCN1[C@H](c1ccc(-c3ccc4c(c3)OCO4)c(OC)c1)[C@@H]1C(=O)N(C)C(=O)[C@@H]12.O=C(O)C(F)(F)F", "hERG current change (%, negative = inhibition) at 10uM": 7.48}
{"smiles": "Cc1ccc(S(=O)(=O)N2CCC(C(=O)NCCCn3ccnc3)CC2)cc1", "hERG current change (%, negative = inhibition) at 10uM": 23}
{"smiles": "COc1ccc(CCNC(=O)C2CCN(S(=O)(=O)N3CC(C)CC(C)C3)CC2)cc1OC", "note": "(centres unmarked)", "hERG current change (%, negative = inhibition) at 10uM": -7.13}
{"smiles": "CN(CC(=O)Nc1ccc(S(=O)(=O)N2CCCC2)cc1)Cc1ccc(Cl)cc1Cl", "hERG current change (%, negative = inhibition) at 10uM": 10.8}
{"smiles": "N#CC1=C(N)NC(=S)C(C(N)=O)C1c1ccccc1F", "note": "(centres unmarked)", "hERG current change (%, negative = inhibition) at 10uM": 10.4}
{"smiles": "CC(C)c1cc(C(=O)N/N=C/c2cccnc2)n[nH]1", "hERG current change (%, negative = inhibition) at 10uM": -7.4}
{"smiles": "COc1ccc(OCc2cccc(C(=O)NN)c2)cc1", "hERG current change (%, negative = inhibition) at 10uM": 2.35}
{"smiles": "O=C(O)CCSc1nc2ccccc2n1CCOc1ccccc1", "hERG current change (%, negative = inhibition) at 10uM": -1.67}
{"smiles": "Cc1ccc(CNC(=O)CCc2nc3ccccc3c(=O)[nH]2)cc1", "hERG current change (%, negative = inhibition) at 10uM": -7.2}
{"smiles": "Cc1cccc(C)c1NC(=O)NC1CC2CCC(C1)N2Cc1cccs1", "note": "(centres unmarked)", "hERG current change (%, negative = inhibition) at 10uM": 11.6}
